Experimental data: article PMC12136788
Some of the results follow.

B1: chr3:148802587:148802588:-_ENSG00000071794_ENST00000310053|hu_mus|hu_hu_hu_mus_False|28_68 (ssRNA)
RNA: GGGAGUUCUACAGUCCGACGAUCUCCAACAACUUGUCCUCUCAUAGUUCCAAAUAAAACCAAAUCUACUUCUUCAUCACUCGUUAGGAAGUCAUCUGGAGGAAUAACAUCUUGGAAUUCAAAAUGUGGCAAGAAAGUUGAGUACAACAGAGGAUUGAGCAUCA
B2: chr11:94609001:94609002:+_ENSG00000166025_ENST00000433060|hu_hu|motif|central (ssRNA)
RNA: GGGAGUUCUACAGUCCGACGAUCAGAGAUGUGAACACAUAGGAGGCAUGGCAAGAGAAUUGAUUUUUAAAAAUCUGUGUGCGGAUGAGGAUGAUCCCCCCUUGAAGUGGACACUUUGAGAGGCUCUGAGGCCAAAGACUCAUUCAACAGAGGAUUGAGCAUCA
B3: chr1:60041781:60041782:+_ENSMUSG00000041040_ENSMUST00000036540|mus_hu|mus_mus_mus_hu_False|28_78 (ssRNA)
RNA: GGGAGUUCUACAGUCCGACGAUCAAGUUUACAAUAGUAAAGUAAAUGCAGUAGUGGAAUGGCAAGUUUUAUUUUCCUUCACAAAAGAAAAUCUUUAUAACCCAGUCCAAUCCCAGAACAUAGUGAAAGCUAUAAAUUCUGACUCAACAGAGGAUUGAGCAUCA
B4: chr5:71505325:71505326:+_ENSG00000131711_ENST00000296755|hu_hu|FALSE|FALSE (ssRNA)
RNA: GGGAGUUCUACAGUCCGACGAUCUUUGUAUUUUAUUGUGGAACUGAGUUUUUUUUUUUCCUUUACAUCAAAUAUCCUCAAUGGAAGAGGGGAUAUUGCACACAAAUAUCAUAAAAGCACUACAUAUUACUUUCACUGGAAACUCAACAGAGGAUUGAGCAUCA
B5: 20112534_20113841_6052_CDS_ENSG00000166833_ENST00000396085|human|control|control (ssRNA)
RNA: GGGAGUUCUACAGUCCGACGAUCGGACACUUGGGAAGGAGCCCGGCUGCAGCCACUGCCUUGAGACUCUGACUUCAGCCGAUCAUUCUCAGCUUUCAGCUUCUCUAUUUCACUCUGCAUCCUGUUCAUGGCCUCCCGGAGCUGCAACAGAGGAUUGAGCAUCA
B6: chr8:104447970:104447971:+_ENSG00000164934_ENST00000297579|hu_hu|hu_hu_hu_mus_False|58_98 (ssRNA)
RNA: GGGAGUUCUACAGUCCGACGAUCAUACACUUCCCUGCUUCGACUUUUGUCCACAGGAAAGAUUCUAAUAGACUUAUCGAAACUAGCAGACACAAAUUCCUUCCCAGUGGGAGAGUAGUCCACAUCAAGUACUGCAGACACGUGCAACAGAGGAUUGAGCAUCA
B7: chr2:198351390:198351391:-_ENSG00000144381_ENST00000345042|hu_hu|hu_hu_hu_mus_False|1_28 (ssRNA)
RNA: GGGAGUUCUACAGUCCGACGAUCUCAUUCCCACCCUCCACAGAAAGGCUGCUUCUGAACUCUCAUGUGGUGACACAGCGCUACAGUCCUGAUGCUCACAGAACAGUAGUAAAAAUGCAGUGAUUUAAGUUGAAAGCAGCAGUACAACAGAGGAUUGAGCAUCA
B8: chr6:83880054:83880055:+_ENSMUSG00000030016_ENSMUST00000032088|mus_hu|FALSE|FALSE (ssRNA)
RNA: GGGAGUUCUACAGUCCGACGAUCUAUUCUUGGAGAUGCUGCAUAAUAAUCAUUCAUCAUAGAAGGAGUUGGAAGUCUCUUCAUCUUCUGGGCAUCAGCAUGUGAAAACUUUGGUAGCCAGGAUGCUUUCACAAUACCAAAGGGCAACAGAGGAUUGAGCAUCA
B9: chrX:20248820:20248821:+_ENSMUSG00000001924_ENSMUST00000001989|mus_mus|mus_mus_mus_hu_True|98_98 (ssRNA)
RNA: GGGAGUUCUACAGUCCGACGAUCGGCGAAGUCCGUCAUCACAAAGUCAGGUUCUGCCAGUGAGGCCACCAAGGAUUUAAAGCUAAUCUUCUUAGGUACUUUGACCUGACUGACGAUGCCUCCACGGAUGUAGUCGGAGAAGUUCAACAGAGGAUUGAGCAUCA
B10: chr5:36837918:36837919:-_ENSMUSG00000029192_ENSMUST00000171385|mus_hu|FALSE|FALSE (ssRNA)
RNA: GGGAGUUCUACAGUCCGACGAUCGAACACGUCCCAGAUACGACAGGCCAGGUCGAGGGGCAGAGAUUUACUAUAUAAGGUAAAGAUCCAAUCAAUUAGGUAGAUAUCUGGAGUUAGGUUGUUCUUCUUGAAAUGCGCAAAUAACAACAGAGGAUUGAGCAUCA
B11: chr4:76721835:76721836:+_ENSG00000138768_ENST00000264904|hu_mus|hu_hu_hu_mus_True|58_88 (ssRNA)
RNA: GGGAGUUCUACAGUCCGACGAUCGUUUGGCUGGGGUUUCUGAGACGUCUGGAAUACUAACUCAUGUUUGCUAAUAAUCCUAGUUUCCUCUAUGAAAUUCUCUUUGCCAAUCCUCUUCUCUAUUAGUUGCUUUAGUUUCUCUUUCAACAGAGGAUUGAGCAUCA
B12: chr2:113333244:113333245:+_ENSG00000125630_ENST00000417433|hu_mus|motif|central (ssRNA)
RNA: GGGAGUUCUACAGUCCGACGAUCGGGAUCAAGUCAGAUGACAUCCAGUUUCACUUUGAUGUUCAUGGCUGCCAGCUCAGCGGCAAAGUACCGGAAGACAUACGGCACAGAGACGGUGUCGAUGGUGUCACUGCGGCCACAGACCAACAGAGGAUUGAGCAUCA
B13: chr9:78326885:78326886:-_ENSMUSG00000037742_ENSMUST00000042235|mus_mus|FALSE|FALSE (ssRNA)
RNA: GGGAGUUCUACAGUCCGACGAUCCAGCUUCUUACCAGAACGACGAUCGAUCUUUUCUUUAAGCUCAGCAAACUUGCAUGCUAUGUGGGCUGUGUGACAAUCCAGAACAGGAGCGUAGCCAGCACUGAUUUGGCCUGGAUGGUUCAACAGAGGAUUGAGCAUCA
B14: chr1:225700702:225700703:-_ENSG00000154380_ENST00000366843|hu_hu|FALSE|FALSE (ssRNA)
RNA: GGGAGUUCUACAGUCCGACGAUCACCAAUAGCAUUCCCUCCACUUGGGAAAGAGGUAUCCUCCAUCCGUGACACUUUCCUAAGUUUUGCUCCGGCAAUUGCAGCUGCAAGUCCAGUUAAAGGGCGAUUGUCUUCUGACAUGGACAACAGAGGAUUGAGCAUCA
B15: 17198978_17206553_600_3pUTR_ENSG00000003987_ENST00000180173|human|control|control (ssRNA)
RNA: GGGAGUUCUACAGUCCGACGAUCGGGGCUGGCUGCUCCGGCAGAUGGAGGCGUGGUUAUCUUUAUAAUAGUAAGAAAGGACAGGAAAUCGCCGUCUACUCCGGAAUUUGGAACUCCCCACUAUGAUGUGUGCCGUGGCCGAUUCAACAGAGGAUUGAGCAUCA
B16: chr2:74435765:74435766:+_ENSG00000065911_ENST00000470592|hu_hu|FALSE|FALSE (ssRNA)
RNA: GGGAGUUCUACAGUCCGACGAUCCCCCAUGGAGUAGCCGGUAACAUGGAAUACUGAUCCAAACACAUUCGUCCUACAUUAAUUACAUGAAAGCCAUCAACAUCCUUGUCUGGAGAAACAGCAUUGCAGAUCCUUCUCUCAUCACAACAGAGGAUUGAGCAUCA
B17: chr19:37063429:37063430:+_ENSMUSG00000040565_ENSMUST00000099494|mus_hu|FALSE|FALSE (ssRNA)
RNA: GGGAGUUCUACAGUCCGACGAUCCAUAGCAUCCCAGAGAUGUGGCAACUUCACUGCCAUUUCACCACCAAAAUGCUUUACUAUAGUUGUCAAAGCAAAUUCAGCUCCUCUCCGUUGUACCAGGUAAGGCUUCUGGGCCUCAUCCAACAGAGGAUUGAGCAUCA
B18: chr5:43656058:43656059:+_ENSG00000112992_ENST00000512996|hu_mus|motif|central (ssRNA)
RNA: GGGAGUUCUACAGUCCGACGAUCGUAAGCCACAAUCUUGGUGAAAUUUGACGUGGCAUCCAUUGCAAAAUGUGGAUACUCGGCGAUGUACUCGGCCAUGCAGGUAAGAACUGCUGCCAGCCCCACCAAACUGUGGAAAGCAGCCAACAGAGGAUUGAGCAUCA
B19: chr11:72491332:72491333:+_ENSMUSG00000020794_ENSMUST00000021148|perfect_dup|motif|central (ssRNA)
RNA: GGGAGUUCUACAGUCCGACGAUCAGCAUCUACAUUUGCAGGUGAGUCUCCAUUAGGAUCUGCCAGCAUAGAAAUGACACGGAUCAUGAUGGUUUCCACAGUAUGGAUAGGUAACCAGCGUUCCUCUGGCUUCUCAUAACCAUACAACAGAGGAUUGAGCAUCA
B20: chr16:46991118:46991119:-_ENSG00000069345_ENST00000563158|hu_hu|motif|central (ssRNA)
RNA: GGGAGUUCUACAGUCCGACGAUCUCCUCUGUUUCUCCAAUUAUGUUAGGAACUUCCGGUCUAGAUGGCAGAAGAUCUUCGGGUUCAGAAAGCUUGUCUGGGUUGAUCCAGUUGUUUUCAGGAAACUGCACAUCAAACUUUAUGCAACAGAGGAUUGAGCAUCA
B21: chr13:97419175:97419176:-_ENSMUSG00000021670_ENSMUST00000022176|mus_hu|FALSE|FALSE (ssRNA)
RNA: GGGAGUUCUACAGUCCGACGAUCGCUUUACGUACAACAGAAAAGGUAAAUCUUCCACAAUAACAAUGCAGACACAAUCACUAAGAGGCUCUCCAUGCUGCCAUGGUUUCCUGGAAUGUUUUUCAGAGUCCAUCUUCUACAAGACAACAGAGGAUUGAGCAUCA
B22: chr1:29344887:29344888:+_ENSG00000159023_ENST00000356093|perfect_dup|motif|central (ssRNA)
RNA: GGGAGUUCUACAGUCCGACGAUCUUCCAUGACCUUUUCUUCAAGUUCCUUGGUCUGAUUUGGAGCCAGUUUAAAAUCACGGACAUAAUCCAUGCCGUGCAGUUCUGGGUCAUAGUCUCCCAGCUCAGACUGGAUCGUGUAAGACAACAGAGGAUUGAGCAUCA

target: T1, UNK ZnF1-3 (human, UniProt Q9C0B0 31-174); assay: nsRBNS (natural sequence RNA bind-n-seq); RBNS binding buffer (assumed for nsRBNS): 25 mM Tris pH 7.5, 150 mM KCl, 3 mM MgCl2, 0.01% Triton X-100, 500 ug/ml BSA, 20 U/ml SUPERase-In, 4 C; UNK is unkempt and MSI1 is Musashi-1; names of the RNAs are library labels; protein concentration not given here; high values mean tight binding
T1 sequence: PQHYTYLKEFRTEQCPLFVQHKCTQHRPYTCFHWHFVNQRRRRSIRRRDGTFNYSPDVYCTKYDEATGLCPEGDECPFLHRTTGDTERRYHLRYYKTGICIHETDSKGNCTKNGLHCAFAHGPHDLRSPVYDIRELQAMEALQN

First: B1
Second: B2
The binding signal of the first is lower: 1.4 enrichment R for the first, 2.55 enrichment R for the second.

Compared with B3, B4 is higher in binding signal: 0.484 enrichment R for the first, 0.644 enrichment R for the second.

Compared with B5, B6 is higher in binding signal: 0.68 enrichment R for the first, 0.787 enrichment R for the second.

Compared with B7, B8 is higher in binding signal: 1.39 enrichment R for the first, 1.41 enrichment R for the second.

First: B9
Second: B10
The binding signal of the first is lower: 0.85 enrichment R for the first, 1.56 enrichment R for the second.

Going from B11 to B12, the binding signal rises from 0.35 enrichment R to 1.25 enrichment R.

First: B13
Second: B14
The binding signal of the first is higher: 0.866 enrichment R for the first, 0.815 enrichment R for the second.

Going from B15 to B16, the binding signal falls from 1.54 enrichment R to 1.5 enrichment R.

Going from B17 to B18, the binding signal rises from 0.828 enrichment R to 0.849 enrichment R.

First: B19
Second: B20
The binding signal of the first is higher: 1.16 enrichment R for the first, 0.878 enrichment R for the second.

Going from B21 to B22, the binding signal falls from 0.947 enrichment R to 0.636 enrichment R.
